The full ranking holds about 33,000 sequences; the median of “E-score (dimensionless, -0.5 to 0.5)” is about -0.058, and the highest 2% start at about 0.35. This is one part of the list.
test system: MvaT; assay: PBM 8-mer E-score (mean of HK and ME arrays) (E-score (dimensionless, -0.5 to 0.5)); higher = stronger relative binding preference; most listed sequences are background and not binding sites
Protocol: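 Protein binding microarray: GST-tagged full-length MvaT (P. aeruginosa PAO1) bound to two universal double-stranded 60-mer arrays (ME and HK), each with a constant 25-mer primer and a variable 35-mer region covering all 8-mers. The 8-mer E-score (rank-based, range -0.5 to 0.5, >0.45 = specific binding) is the mean of the two arrays.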

| Sequence | PBM 8-mer E-score |
| --- | --- |
| ACCCTGCG | -0.237 |
| CAGGCTGA | -0.0844 |
| CGGGTTGA | -0.0597 |
